Assay results as given in the supplement of paper PMC11348887.
Where a name gives a salt, the structure may show the parent alone. This is one part of the list. Rule as the data show it: active = -2 or less and inactive = the rest. Repeats are few or missing, and single values can be far off.

These molecules were tested on hPSC-derived cortical neurons (WA09) (assay: nuclei number (viability) z-score; higher = more surviving cells). Details: 5 µM; treatment: days 7-14 after plating, readout day 21.
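Also: nuclei counted from DAPI counterstain by automated high-content image analysis, four fields per well at ×20 in 384-well plates, with sequential b-score then z-score normalization.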

| Compound | nuclei number (z-score) |
| --- | --- |
| CN1CCC[C@@H]1CCO[C@](C)(c1ccccc1)c1ccc(Cl)cc1 [Clemastine Fumarate] | inactive: -0.408 |
| CCOc1ccc(NC(C)=O)cc1 [Phenacetin] | inactive: 0.0928 |
| CN1CCN(Cc2ccc(NC(=O)Nc3ccc(Oc4ccnc(N)n4)cc3)cc2C(F)(F)F)CC1 | active: -5.93 |
| CC[N+](CC)(CC)CCOc1cccc(OCC[N+](CC)(CC)CC)c1OCC[N+](CC)(CC)CC [Gallamine Triethiodide] | inactive: -0.203 |
| CCOC(=O)[N-]c1c[n+](N2CCOCC2)no1 [Molsidomine] | inactive: 0.265 |
| CC(C)(C)NCC(O)c1cc(O)cc(O)c1 (configuration not stated) [Terbutaline Sulfate] | inactive: 0.397 |
| CN(C)CCCCC(=O)Nc1ccc(NC(=S)NC(=O)c2ccc(C(C)(C)C)cc2)cc1 [Tenovin-6] | inactive: -1.82 |
| C=C(c1ccc(C(=O)O)cc1)c1cc2c(cc1C)C(C)(C)CCC2(C)C [Bexarotene] | inactive: 2.03 |
| CCc1oc2ccccc2c1C(=O)c1cc(Br)c(O)c(Br)c1 [Benzbromarone] | inactive: -0.309 |
| CC/C(=C(\c1ccccc1)c1ccc(OCCN(C)C)cc1)c1ccccc1 [Tamoxifen Citrate] | active: -2.41 |
| CC/C(=C(\c1ccccc1)c1ccc(OCCN(C)C)cc1)c1ccccc1 [Tamoxifen] | active: -3.56 |
| Cn1cc(-c2ccc(S(=O)(=O)n3ccc(/C=C/C(=O)Nc4ccccc4N)c3)cc2)cn1 | inactive: -0.32 |
| CCN(CCCOc1ccc2c(Nc3cc(CC(=O)Nc4cccc(F)c4)[nH]n3)ncnc2c1)CCOP(=O)(O)O [Barasertib (AZD1152-HQPA)] | inactive: 0.028 |
| Cc1ccccc1N=Nc1ccc(NC(=O)c2ccnn2C)c(C)c1 | inactive: 0.0346 |
| O=c1[nH]nc(Sc2ncc([N+](=O)[O-])s2)n1-c1ccc2c(c1)OCCO2 | active: -6.44 |
| Cc1c[nH]c(/C=C2\C(=O)Nc3ccccc32)c1CCC(=O)O | inactive: 0.409 |
| CN[C@@H]1[C@H](O[C@H]2[C@H](O[C@H]3[C@H](O)[C@@H](O)[C@H](NC(=N)N)[C@@H](O)[C@@H]3NC(=N)N)O[C@@H](C)[C@]2(O)CO)O[C@@H](CO)[C@H](O)[C@H]1O [Dihydrostreptomycin sulfate] | inactive: 0.875 |
| COc1c2ccoc2cc2oc(=O)ccc12 [Bergapten] | inactive: 1.97 |
| CCCCCCCCCCCC1=C(O)C(=O)C=C(O)C1=O [Embelin] | inactive: -0.771 |
| NCCCC(N)(C(=O)O)C(F)F (configuration not stated) [Eflornithine hydrochloride hydrate] | inactive: 1.8 |
| O=C(O)CNC(=O)c1nc(Cl)c2ccccc2c1O | inactive: 0.0222 |
| CCOCc1nc2c(N)nc3ccccc3c2n1CC(C)(C)O [Resiquimod] | inactive: -0.279 |
| CN(C)CCOC(c1ccc(Cl)cc1)c1ccccn1 (configuration not stated) [CarbinoxaMine Maleate] | inactive: 0.462 |

| Compound | nuclei number (z-score) |
| --- | --- |
| O=C1CCc2ccc(OCCCCN3CCN(c4cccc(Cl)c4Cl)CC3)cc2N1 [Aripiprazole] | inactive: 1.39 |
| Cc1ccccc1C(OCCN(C)C)c1ccccc1 (configuration not stated) [Orphenadrine Citrate] | inactive: 0.0915 |
| Cc1nn(C)c2c1C(c1ccc(C(F)(F)F)cc1)C(C#N)=C(N)O2 (configuration not stated) | inactive: 1.75 |
| O=C1C(O)=C([C@H]2CC[C@H](c3ccc(Cl)cc3)CC2)C(=O)c2ccccc21 [Atovaquone] | inactive: 3.22 |
| CNCc1cc(-c2ccccc2F)n(S(=O)(=O)c2cccnc2)c1 | inactive: -0.447 |
| CCCC(=O)[O-].[Na+] [Sodium butyrate] | inactive: -0.221 |
| C/C=C(/C)C(=O)O[C@H]1[C@H](OC(C)=O)[C@@]2(CO)C(CC1(C)C)C1=CCC3[C@@]4(C)CCC(O[C@@H]5O[C@H](C(=O)O)[C@@H](O[C@@H]6O[C@H](CO)[C@@H](O)[C@H](O)[C@H]6O)[C@H](O)[C@H]5O[C@@H]5O[C@H](CO)[C@@H](O)[C@H](O)[C@H]5O)[C@](C)(CO)C4CC[C@@]3(C)[C@]1(C)C[C@H]2O.C/C=C(\C)C(=O)O[C@H]1[C@H](OC(C)=O)[C@@]2(CO)C(CC1(C)C)C1=CCC3[C@@]4(C)CCC(O[C@@H]5O[C@H](C(=O)O)[C@@H](O[C@@H]6O[C@H](CO)[C@@H](O)[C@H](O)[C@H]6O)[C@H](O)[C@H]5O[C@@H]5O[C@H](CO)[C@@H](O)[C@H](O)[C@H]5O)[C@](C)(CO)C4CC[C@@]3(C)[C@]1(C)C[C@H]2O (some centres not stated) [Escin] | active: -2.05 |
| COCCOc1ccc2c(c1)ncn2-c1ccc2cccc(N3CCC(N)CC3)c2n1 | inactive: 1.28 |
| Cc1cc(Nc2cc(N3CCN(C)CC3)nc(/C=C/c3ccccc3)n2)n[nH]1 | inactive: -0.797 |
| Cc1cc(Nc2cc(N3CCN(C)CC3)nc(/C=C/c3ccccc3)n2)n[nH]1 [ENMD-2076 L-(+)-Tartaric acid] | inactive: -0.415 |
| Cc1cc(-c2ccc(CC(=O)Nc3ccc(-c4cccnc4)cc3)cc2)ccn1 | inactive: -0.828 |
| COc1ccc(C2CC(c3ccccc3)=NN2c2ccc(S(N)(=O)=O)cc2)cc1 (configuration not stated) | inactive: 0.159 |
| OC[C@H]1O[C@@H](c2ccc(Cl)c(Cc3ccc(O[C@H]4CCOC4)cc3)c2)[C@H](O)[C@@H](O)[C@@H]1O | inactive: 0.00464 |
| Cc1nc(C#Cc2ccnc(Cl)c2)c(C)n1-c1ccc(OC(F)(F)F)cc1 | inactive: 1.15 |
| CN(C)c1cccc(-c2c3c(=O)n(-c4ccccc4Cl)[nH]c3cc(=O)n2C)c1 | inactive: -0.319 |
| COC(=O)C1=C(C)NC(C)=C(C(=O)OCCN(C)Cc2ccccc2)C1c1cccc([N+](=O)[O-])c1 (configuration not stated) [Nicardipine HCl] | inactive: -0.987 |
| CC1(C)CNc2cc(NC(=O)c3cccnc3NCc3ccncc3)ccc21 [Motesanib Diphosphate (AMG-706)] | inactive: -0.459 |
| CC[C@@H]1/C=C(\C)C[C@H](C)C[C@H](OC)[C@H]2O[C@@](O)(C(=O)C(=O)N3CCCC[C@H]3C(=O)O[C@H](/C(C)=C/[C@@H]3CC[C@@H](O)[C@H](OC)C3)[C@H](C)[C@@H](O)CC1=O)[C@H](C)C[C@@H]2OC [Ascomycin (FK520)] | active: -2.82 |
| COc1ccc(N2C(=O)/C(=C\c3ccc([N+](=O)[O-])s3)SC2=S)cc1 | inactive: 4.39 |
| Oc1cc(O)c(Cl)cn1 [Gimeracil] | inactive: 1.92 |
| COc1ccc2cc(OCC3(C(=O)O)CN(C(=O)c4ccc(F)cc4)C3)ccc2c1 | inactive: -0.195 |
| COC(=O)C1=C(C)NC(C)=C(C(=O)OCC(C)C)C1c1ccccc1[N+](=O)[O-] (configuration not stated) [Nisoldipine] | inactive: -1.56 |
| CC(O)(P(=O)(O)O)P(=O)(O)O [Etidronate] | inactive: 0.468 |

| Compound | nuclei number (z-score) |
| --- | --- |
| Nc1ncnc2c1C(=O)N(c1ccc([C@H]3CC[C@H](CC(=O)O)CC3)cc1)CCO2 | inactive: 0.587 |
| O=C1[C@H](CC[C@H](O)c2ccc(F)cc2)[C@@H](c2ccc(O)cc2)N1c1ccc(F)cc1 [Ezetimibe] | inactive: -0.689 |
| c1cc(-c2cnn3cc(-c4ccc(OCCN5CCCCC5)cc4)cnc23)ccn1 [Dorsomorphin (Compound C)] | inactive: 0.146 |
| c1cc(-c2cnn3cc(-c4ccc(OCCN5CCCCC5)cc4)cnc23)ccn1 [Dorsomorphin 2HCl] | inactive: -0.696 |
| CN1CCC(NC(=O)c2cc(-c3c(O)cc(O)cc3Oc3ccc([N+](=O)[O-])cc3)on2)CC1 | active: -4.27 |
| Cc1cc(-c2ncc(CC(=O)Nc3ccc(-c4cnccn4)cn3)cc2C)ccn1 | inactive: 1.08 |
| Cc1cnc(C(=O)NCCc2ccc(S(=O)(=O)NC(=O)NC3CCCCC3)cc2)cn1 [Glipizide] | inactive: -0.534 |
| COc1ncc(-c2ccc3nccc(-c4ccnnc4)c3c2)cc1NS(=O)(=O)c1ccc(F)cc1F | active: -6.65 |
| COc1cc2ncnc(Oc3ccc(CC(=O)Nc4cnn(C(C)C)c4)cc3)c2cc1OC | inactive: -0.273 |
| CN1CCC(=C2c3ccccc3CCc3sccc32)CC1 [Pizotifen Malate] | inactive: -0.541 |
| CN1CCOC(c2ccccc2)c2ccccc2C1 (configuration not stated) [Nefopam HCl] | inactive: -0.172 |
| CC(C)=CCC/C(C)=C/CC/C(C)=C/CSc1ccccc1C(=O)O [Salirasib] | inactive: 3.04 |
| CCCCCOC(=O)Nc1nc(=O)n([C@@H]2O[C@H](C)[C@@H](O)[C@H]2O)cc1F [Capecitabine] | inactive: 1.23 |
| CCCCNc1ccc(C(=O)OCCN(C)C)cc1 [Tetracaine HCl] | inactive: -1.05 |
| O=C(O)[C@H]1CSC(c2nc3ccc(O)cc3s2)=N1 [D-Luciferin] | inactive: 6.28 |
| CCN(CC)CCOc1ccc(C(=C(Cl)c2ccccc2)c2ccccc2)cc1 [Clomifene citrate] | active: -5.98 |
| CN(C)CCCn1cc(C2=C(c3c[nH]c4ccccc34)C(=O)NC2=O)c2ccccc21 | inactive: -0.102 |
| COc1nc(N)nc2c1ncn2[C@@H]1O[C@H](CO)[C@@H](O)[C@@H]1O [Nelarabine] | inactive: -0.418 |
| COc1ccccc1N1CCN(CCCNc2cc(=O)n(C)c(=O)n2C)CC1 [Urapidil HCl] | inactive: 1.6 |
| O=C(Nc1cccc(Nc2ncc(Br)c(NCCc3cnc[nH]3)n2)c1)N1CCCC1 | inactive: 0.429 |
| CCN(CC)Cc1cc(Nc2ccnc3cc(Cl)ccc23)ccc1O [Amodiaquine dihydrochloride dihydrate] | active: -2.14 |
